Screen size: about 16,000 compounds; about 120 (0.75%) were called active. Inconclusive results (about 4%) are left out. The call rests on the fitted dose curve; in most records, active means well fitted inhibition curve with a large enough effect; inconclusive means small, poorly fitted or top-dose-only effect; inactive means no such curve, though single readings can be large or run the other way. This is one part of the list.
What follows are compounds tested against Rap guanine nucleotide exchange factor 3 (Homo sapiens) (UniProt O95398) (assay: Validation qHTS for antagonist of cAMP-regulated guanine nucleotide exchange factor 3 (EPAC1)). Settings: EPAC1 Rap1B-BODIPY-GDP exchange, fluorescence; series mostly up to 150 µM; activity change, negative = inhibition: at the top concentration.
Summary of the method: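 EPAC1 (100 nM) mixed with 250 nM RAP1B-BODIPY-GDP and 50 uM GDP; compounds in concentration series, 5 min at room temperature. Fluorescence (ex 480/em 540 nm) read every 5 min for 30 min; normalized to ATA control and DMSO.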
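Further: plate controls were DMSO for no effect and ATA control for full effect; nearly all actives have a fitted effect of over 75% in size.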

Sequence of UniProt O95398 (O95398 whole entry, looked up): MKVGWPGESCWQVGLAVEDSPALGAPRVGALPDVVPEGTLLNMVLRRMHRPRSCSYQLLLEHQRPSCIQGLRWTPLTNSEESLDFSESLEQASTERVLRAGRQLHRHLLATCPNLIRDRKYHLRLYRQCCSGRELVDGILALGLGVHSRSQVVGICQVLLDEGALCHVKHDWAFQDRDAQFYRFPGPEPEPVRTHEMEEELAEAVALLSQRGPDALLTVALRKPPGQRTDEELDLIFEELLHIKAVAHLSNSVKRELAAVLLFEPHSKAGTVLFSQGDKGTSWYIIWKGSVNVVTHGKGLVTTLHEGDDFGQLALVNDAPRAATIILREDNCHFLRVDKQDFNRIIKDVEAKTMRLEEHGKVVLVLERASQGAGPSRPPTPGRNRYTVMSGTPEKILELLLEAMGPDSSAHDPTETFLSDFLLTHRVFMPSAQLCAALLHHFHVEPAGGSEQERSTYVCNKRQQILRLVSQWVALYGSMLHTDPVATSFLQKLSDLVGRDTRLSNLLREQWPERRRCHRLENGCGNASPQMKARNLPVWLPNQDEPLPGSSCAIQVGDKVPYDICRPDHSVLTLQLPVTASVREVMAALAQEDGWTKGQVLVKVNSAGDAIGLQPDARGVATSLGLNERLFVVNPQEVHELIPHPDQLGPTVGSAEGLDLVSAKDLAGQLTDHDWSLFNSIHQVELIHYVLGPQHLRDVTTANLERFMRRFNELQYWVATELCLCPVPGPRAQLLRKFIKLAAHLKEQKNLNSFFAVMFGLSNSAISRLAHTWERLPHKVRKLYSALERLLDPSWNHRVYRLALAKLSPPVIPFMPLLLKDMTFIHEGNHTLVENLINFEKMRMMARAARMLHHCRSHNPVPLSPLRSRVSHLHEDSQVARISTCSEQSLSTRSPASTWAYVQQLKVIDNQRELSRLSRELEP

| Structure (SMILES) | activity change, negative = inhibition |
| --- | --- |
| Oc1cc2c(cc1O)[C@H]1c3ccc(O)c(O)c3OC[C@@]1(O)C2 | inactive: 15.5% |
| C=CC(N)CCC(=O)O (configuration not stated) | inactive |
| CCCCCCCCCCCCCCCC(=O)OC/C=C(C)/C=C/C=C(C)/C=C/C1=C(C)CCCC1(C)C | inactive |
| O=C(O)CCCCCCCC(=O)O | inactive |
| O=C(CCCN1CCN2CCCC2C1)c1ccc(F)cc1 (configuration not stated) | inactive: 5.88% |
| CCCCCCCCCCCCCCCCCCNC(=O)OC1CCN(C(=O)OC[C@H](COC(=O)N(Cc2cccc[n+]2CC)C(=O)c2ccccc2OC)OC)CC1 | inactive: 17% |
| CC12CCC3C(CC3(C)C)C(C)(CCC1=O)O2 (configuration not stated) | inactive: 5.94% |
| CC1CN(Cc2cccn2-c2cccnc2)Cc2cc(Cl)ccc2O1 (configuration not stated) | inactive: -6.43% |
| Cc1noc(C)c1C(=O)N1CCC2(CC1)CCN(c1ncccn1)CC2 | inactive: 21.4% |
| COCC(=O)N1CCC2(CCCN(C(c3ccccc3)c3ccccc3)C2)CC1 | inactive: 4.64% |
| Cn1c(=O)c(-c2cccc(F)c2)nc2cncnc21 | inactive: -7.64% |
| CCCCCCCCCC(=O)O[C@H](CC(=O)O)C[N+](C)(C)C | inactive: 13.5% |
| C=C1C[C@@]23C[C@@]1(O)CC[C@@H]2[C@]12C=C[C@@H](O)[C@](C)(C(=O)O1)[C@@H]2[C@@H]3C(=O)O | inactive: -10.2% |
| CN(C)c1ncc2nc(-c3ccccc3)c(=O)n(C)c2n1 | inactive: 16.1% |
| O=C(O)[C@H]1[C@H]2C[C@H]3c4[nH]c5ccccc5c4CCN3C[C@@H]2CC[C@@H]1O | inactive: 13% |
| CC(O)CN(CCN(CC(C)O)CC(C)O)CC(C)O (configuration not stated) | inactive: 9.94% |
| COCC(=O)N1CCC2(CC1)CN(Cc1ccccc1OC)C2 | inactive: 0.463% |
| CN(C)Cc1ccccc1-c1cncnc1NC1CC1 | inactive: 24.4% |
| CC[N+](C)(CC)CCOC(=O)C1c2ccccc2Oc2ccccc21 | inactive: 5.2% |
| O=C(O)CN1C(=O)c2cccc3cccc(c23)C1=O | inactive |
| FC(F)(F)C(Cl)Br (configuration not stated) | inactive: 23.1% |
| CCCCN(CCCC)CCCOC(=O)c1ccc(N)cc1 | inactive: 1.71% |
| Cc1ccc(C(=O)c2ccc(CC(=O)O)n2C)cc1 | inactive |
| C/C(=N\O)c1ccc(OCC(=O)N2CCCCC2)cc1 | inactive: 19.5% |
| c1ccc(Nc2nc(-c3cccnc3)nc3ccccc23)cc1 | inactive: 0.665% |
| Cc1cnc(SCC2CCCO2)nc1C1CCCN(Cc2nc(-c3ccccc3)cs2)C1 (configuration not stated) | inactive: 6.04% |

| Structure (SMILES) | activity change, negative = inhibition |
| --- | --- |
| O=C(c1cnccn1)N1CCC[C@@]2(CCN(c3ccccc3)C2)C1 | inactive: 7.37% |
| Cc1cn[nH]c1 | inactive |
| COc1ccc(CN2CCCC(Cn3cc(C(=O)N4CCCC4)nn3)C2)c(O)c1 (configuration not stated) | inactive: 5.03% |
| NC(N)=NS(=O)(=O)c1ccc(N)cc1 | inactive |
| COc1cccc(Nc2ncc3ncc(=O)n(C4CC4)c3n2)c1 | inactive: 5.85% |
| COc1ccccc1-c1cncnc1NCc1cccc(C)c1 | inactive: 19.6% |
| O=C(c1cccc(F)c1)N1CCC2(CCN(Cc3nccs3)CC2)CC1 | inactive: 10.1% |
| COC(=O)C1CCCCN1Cc1ccc2c(c1)CN(C(=O)c1ccc(C)s1)CCO2 (configuration not stated) | inactive: 1.06% |
| OCCN1CCN(CC/C=C2/c3ccccc3Sc3ccc(C(F)(F)F)cc32)CC1 | inactive |
| O=C(c1ccco1)N1CCC2(CCN(Cc3ccncc3)CC2)CC1 | inactive: 12.7% |
| COc1ccc(N2C(=O)[C@@H]3C[C@H]2CN3Cc2ccc3nccnc3c2)cc1Cl | inactive: 4.81% |
| CCNc1ncc2ncc(=O)n(Cc3cccc(OC)c3)c2n1 | inactive: 3.83% |
| COc1c(-c2coc3cc4c(cc3c2=O)CC(O)C(C)(C)O4)ccc2c1C=CC(C)(C)O2 (configuration not stated) | inactive: -15.3% |
| C[C@@H](O)[C@H]1C(=O)N2C(C(=O)O)=C([C@H]3CCCO3)S[C@H]12 | inactive: 0.809% |
| CN(C)Cc1ccccc1-c1cncnc1NCc1cccnc1 | inactive: -10.8% |
| CC(=O)N1CCC2(CCCN(c3ccncc3)C2)CC1 | inactive: 6.16% |
| N[C@@H](C(=O)O)[C@@H](CC(=O)O)c1ccc(Cl)cc1 | inactive: 17.6% |
| COc1ccc2c(c1)O[C@@H]1c3ccc(OC)cc3OCC21 (some centres not stated) | inactive: 5.15% |
| C[C@@H](NCCCc1cccc(C(F)(F)F)c1)c1cccc2ccccc12 | inactive: -13.5% |
| CC(=O)[C@@]1(O)CC[C@H]2[C@@H]3C=C(Cl)C4=CC(=O)[C@@H]5C[C@@H]5[C@]4(C)[C@H]3CC[C@@]21C | inactive: 9.17% |
| CO[C@@H]1[C@@H](O[C@@H]2O[C@H](C)[C@@H](O[C@H]3C[C@@](C)(O)[C@@H](OC(=O)CC(C)C)[C@H](C)O3)[C@H](N(C)C)[C@H]2O)[C@@H](CC=O)C[C@@H](C)[C@@H](O)/C=C/C=C/C[C@@H](C)OC(=O)C[C@H]1O | inactive |
| CN(Cc1ccco1)c1ccnc(-c2ccccc2C(F)(F)F)n1 | inactive: -6.64% |
| COc1cc(=O)n2c(c1C(=O)NCc1ccco1)CCN(Cc1cccc(Cl)c1)CC2 | inactive: 6.94% |
| CC(C)c1c(C(=O)NCc2cccnc2)cnn1-c1nccc(-c2ccccc2F)n1 | inactive: 8.75% |
| COc1ccc(OC)c(/C=C/c2ccnc3ccccc23)c1 | inactive: -4.67% |
| CC[N+](C)(C)c1cccc(O)c1 | inactive |

| Structure (SMILES) | activity change, negative = inhibition |
| --- | --- |
| COc1ccccc1CCn1c(=O)c(-c2cccc(Cl)c2)nc2cncnc21 | inactive: -9.79% |
| COc1cc(OC)c2nc(-c3cc4c(c(OC)c3)OCCN(C(=O)C(C)c3n[nH]c(=O)c5ccccc35)C4)cc(C)c2c1 (configuration not stated) | inactive: 23.1% |
| NC(=O)[C@@H]1CCCN1C(=O)c1cc(NC(=O)c2ccccc2)cc2ncn(C3CCCC3)c12 | inactive: 4.85% |
| FC(F)(F)c1ccccc1-c1nccc(N2CCNCC2)n1 | inactive: -11.8% |
| CCCN1CCN(C(=O)c2cnn(-c3ncc4c(n3)-c3ccccc3CCC4)c2COC)CC1 | inactive: 8.9% |
| CN1C(CC(=O)c2ccccc2)CCCC1CC(O)c1ccccc1 (configuration not stated) | inactive: 13.6% |
| Cc1cccc(CNc2ncncc2-c2ccccc2CN(C)C)c1 | inactive: 5.07% |
| O=c1c(-c2ccccc2)nc2cncnc2n1Cc1ccccc1Cl | inactive: -10.5% |
| CCCOc1cc(N)ccc1C(=O)OCCN(CC)CC | inactive: 29.8% [at 75.8 µM] |
| O=C(c1cccc(F)c1)N1CCC2(CC1)CN(c1ccccn1)C2 | inactive: 8.81% |
| O=C[C@H](O)[C@@H](O)[C@H](O)[C@H](O)CO | inactive: 19.8% |
| CC1(C)OC2CC3C4CCC5=CC(=O)C=C[C@@]5(C)[C@]4(F)C(O)C[C@@]3(C)[C@]2(C(=O)CO)O1 (some centres not stated) | inactive: 4.5% |
| COc1ccc(-n2c(=O)c(-c3cc(F)cc(F)c3)nc3cnc(N4CCOCC4)nc32)cc1 | inactive: -5.61% |
| OC(Cn1cncn1)(Cn1cncn1)c1ccc(F)cc1F | inactive: 16.5% |
| O=C(Nc1ccccc1)N1CC[C@@]2(CCCN(C(=O)c3csnn3)C2)C1 | inactive: 12.6% |
| C[C@@H]1[C@H](c2ccccc2)OCCS(=O)(=O)N1Cc1cccc(Cl)c1 | inactive: -9.43% |
| O=C(Nc1ccccc1)Nc1ccccc1 | inactive: 3.59% |
| Cc1cnc(SCC2CCCO2)nc1C1CCCN(C(=O)C2=NNC(=O)CC2)C1 (configuration not stated) | inactive: 17.6% |
| CSc1ncccc1C(=O)NCC1Cc2cc(-c3cnccn3)ccc2O1 (configuration not stated) | inactive: 9.01% |
| O=C(c1cc(C(F)(F)F)cc(C(F)(F)F)c1)N1CCC[C@@]2(CCN(Cc3nccs3)C2)C1 | inactive: -2.52% |
| COc1ccccc1OCC(O)CN1CCN(CC(=O)Nc2c(C)cccc2C)CC1 (configuration not stated) | inactive |
| O=[N+]([O-])c1cccc2cn[nH]c12 | inactive |
| Cc1cc(C(=O)NCc2nc(-c3ccccc3NC(=O)C3CCCO3)oc2C)nc(C)n1 (configuration not stated) | inactive: 3.75% |
| O=C(O)[C@@H](O)[C@H](O)[C@H](O)[C@@H](O)C(=O)O (tested in a mixture with another compound) | inactive: 3.11% |
| COc1cc([C@@H]2c3cc4c(cc3[C@@H](O[C@@H]3O[C@@H]5CO[C@@H](C)O[C@H]5[C@H](O)[C@H]3O)[C@H]3COC(=O)[C@H]23)OCO4)cc(OC)c1O | inactive: 6.44% |
| COc1ccc2[nH]c(CCc3nc4c(OC)c(OC)ccc4[nH]3)nc2c1OC | inactive: 13.4% |

| Structure (SMILES) | activity change, negative = inhibition |
| --- | --- |
| COc1ncc2nc(-c3ccc(F)cc3)c(=O)n(Cc3cccs3)c2n1 | inactive: 8.55% |
| N#Cc1ccc(CN2CC3(CCN(C(=O)c4ccncc4)CC3)C2)cc1 | inactive: 14.2% |
| O=C([C@@H]1CC=C[C@@H]2CCN(C3CC3)C(=O)[C@@H]21)N1CCN(c2ccccc2)CC1 | inactive: -0.694% |
| O=S1(=O)CCOC[C@H](CC2CCCCC2)N1Cc1ccccc1 | inactive: 14.7% |
| NC(=O)C(c1ccccc1)(c1ccccc1)[C@@H]1CCN(CCc2ccc3c(c2)CCO3)C1 | inactive: 13.9% |
| NC1(C(=O)O)C[C@H](C(=O)O)[C@H](C(=O)O)C1 (some centres not stated) | inactive |
| Cc1ccc2nc(SCC(=O)N3CCOc4ccc(CN5C[C@@H](C)O[C@@H](C)C5)cc4C3)[nH]c2c1 | inactive: 12.3% |
| Clc1ccc(/C=C/c2ccc3ccccc3n2)cc1Cl | inactive: 5.55% |
| CCCNCC(O)COc1ccccc1C(=O)CCc1ccccc1 (configuration not stated) | inactive |
| CCNC(=O)c1sc2ncnc(NCCCN3CCOCC3)c2c1C | inactive: 6.63% |
| CC(C)(C)CC(C)(C)c1ccc(OCCO)cc1 | inactive: -1.44% |
| CC(=O)OCC(=O)[C@@]1(O)CCC2C3CCC4=CC(=O)CC[C@]4(C)C3C(=O)C[C@]21C (some centres not stated) | inactive: -18.3% |
| CCC1(C2CCN(C(=O)c3ccc(C)c(C)c3)CC2)NC(=O)N(CCc2scnc2C)C1=O (configuration not stated) | inactive: 14.3% |
| CCOC(=O)c1cccc(N)c1 | inactive: 19.9% |
| COc1ccc2ccccc2c1CN1CCC2(CCC(CNC(=O)c3ccccc3)O2)CC1 (configuration not stated) | inactive: 5.02% |
| COc1cccc(CN2CCCC(c3nc(-c4ccncc4)ncc3-c3ccccc3)C2)c1O (configuration not stated) | inactive: -11.2% |
| COc1ccccc1CN1CC[C@@]2(CCCN(C(C)=O)C2)C1 | inactive: 16.6% |
| COc1ccccc1CN1CC2(CCN(S(C)(=O)=O)CC2)C1 | inactive: 1.87% |
| CS(=O)(=O)CCCCN=C=S | inactive: 13.1% |
| COCc1c(C(=O)N2CCC(N3CCCCC3)CC2)cnn1-c1ncc(C)c(-c2cccs2)n1 | inactive: 11.4% |
| COc1cc(=O)n2c(c1C(=O)N(C)Cc1nonc1C)CCN(Cc1cc(C)c(C)cc1C)CC2 | inactive: 10.6% |
| COc1ccc(C(OCCN2CCC[C@@H](C(=O)O)C2)(c2ccc(OC)cc2)c2ccc(OC)cc2)cc1 | inactive: 0.707% |
| CCNc1ncc2nc(-c3cn(C)c4ccccc34)c(=O)n(-c3ccc(OC)cc3)c2n1 | inactive: 29% |
| COCC(=O)Nc1cc(C(=O)N2CCCCC2c2nccn2C)cc2nc(-c3ccccc3)n(C)c12 (configuration not stated) | inactive: 4.22% |

— PubChem BioAssay AID1645882 (National Center for Advancing Translational Sciences (NCATS), 2021)
